Reference: PubChem BioAssay AID248 (DTP/NCI, 2004)
Toxic doses and inconclusive results are not listed. For part of its entries the source gives two or more results. They are shown here; other results are not. An entry can have further records. The records of an entry are repeated measurements (runs, samples, wells, individuals or studies).

Tested on: L1210 leukemia ip in BDF1 mice, survival T/C
Test: NCI In Vivo Anticancer Drug Screen. Data for tumor model L1210 Leukemia (intraperitoneal) in B6D2F1 (BDF1) mice
Settings: endpoint: mean survival time, higher = longer survival

With O=C(Cl)c1cccc2c([N+](=O)[O-])cccc12 as the compound, how does the T/C (dose: 50.0 mg/kg/injection, schedule: Q01DX001 (ip), vehicle: other) read?
The T/C was 94 % of control, 106 % of control, 168 % of control.

For ClC(c1ccccc1)C1(Br)C=c2ccccc2=C1 (configuration not stated), which T/C (dose: 100.0 mg/kg/injection, schedule: Q04DX003 (ip), vehicle: Klucel (hydroxypropylcellulose) (HPC)) is on record?
The T/C was 94 % of control and 171 % of control.

Which results are given for CN(N=O)C(N)=O?
T/C (dose: 14.0 mg/kg/injection, schedule: Q01DX Z (sc), vehicle: saline): 112 % of control and 163 % of control; T/C (dose: 21.0 mg/kg/injection, schedule: Q01DX Z (sc), vehicle: saline): 120 % of control and 166 % of control

For CCOC(=O)C(Cc1ccc(N(CCCl)CCCl)cc1)NC=O (configuration not stated), which T/C (dose: 300.0 mg/kg/injection, schedule: Q01DX001 (ip), vehicle: carboxymethylcellulose (CMC)) is on record?
The T/C was 114 % of control and 170 % of control.

With Cc1ccc(S(=O)(=O)Cl)cc1C(=O)O as the compound, how does the T/C (dose: 50.0 mg/kg/injection, schedule: Q01DX001 (ip), vehicle: saline with Tween-80) read?
The T/C was 87 % of control, 96 % of control, 152 % of control.

Which T/C (dose: 1.0 mg/kg/injection, schedule: Q01DX Z (ip), vehicle: saline) does the source give for O=P(N1CCCC1)(N1CC1)N1CC1 here?
Its T/C is 97 % of control and 184 % of control.
